Source: patent US12484583B2 (priority 2019, dated 2025)

Experiments:
Format in all cases: cell-based
[1] = system: Fusarium culmorum; assay: Fungal growth on PDA agar, fipronil (Example 6); settings: 7 days
Excerpt: (§1) The Colby equation (Colby, 1967. Weeds 15: 20-22) calculates the expected antifungal activity (E in %) of a combination comprising more than one active ingredients: E=X+Y−[(X·Y)/100] wherein X and Y are the observed antifungal activities (in %) of the individual active ingredients x and y, respectively. If the observed antifungal activity (O in %) of the combination exceeds the expected antifungal activity (E in %) of the combination and the synergy factor O/E is thus >1.0, the combined application of the active ingredients leads to a synergistic antifungal effect.
(§2) Agar medium was prepared by mixing in a 100 ml Duran bottle 3.9 g of potato dextrose agar (PDA) from Carl-Roth (Carl-Roth GmbH+Co. KG, Karlsruhe, Germany) with 100 ml deionized water and autoclaving the Duran bottle at 120° C. for 15 minutes. After autoclaving, the solution was cooled by putting it in a 48° C. oven for about two hours. […] The medium in the Duran bottle was divided over 5 petri dishes (90×15 mm), 20 ml per petri dish by using 25 ml serological pipets (ROTILABO®; Carl-Roth).
(§3) Fungal spore suspensions were prepared by drenching a fully grown petri dish with sterile water. The fungus was scraped off and filtered through a Miracloth (pore size: 22-25 μm) (Merck KGaA, Darmstadt, Germany; catalogue number: 475855). The number of spores were counted with a hemocytometer and fungal suspension was adjusted to 10^6 spores per ml. Afterward, 5 µl of prepared spore suspension was pipetted on the center of the agar plate. The plates were incubated at 25° C. Measurement of the fungal growth was done using calipers at different time points.
The insecticide concentration “N” (see below) that was used was 0.94 g insecticide product per 100 ml PDA agar. 0.5 N is 0.47 g. […] The efficacy was assessed after 7 days of incubation in a stove at 25° C. Synergistic calculation was done using the Colby equation.

[2] = system: Botrytis cinerea; assay: Fungal growth on PDA agar, chlorantraniliprole (Example 15)
Excerpt: as §1, §2, §3
See Example 6. In this example the product CORAGEN® of Dupont containing the active ingredient chlorantraniliprole belonging to IRAC Group 28 was used.
The insecticide concentration “N” (see below) that was used was 125 μl of insecticide product per 100 ml PDA agar. Per 100 ml PDA agar the concentration 0.25N contained 31.25 μl coragen; 0.5N contained 62.5 μl coragen, 2N contained 250 μl coragen, 5N contained 625 μl coragen and 10N contained 1250 μl of the coragen product per 100 ml PDA agar.
The efficacy was assessed after 4 and 5 days of incubation in a stove at 25° C.

[3] = system: Fusarium culmorum; assay: Fungal growth on PDA agar, chlorfenapyr (Example 20); settings: 7 days
Excerpt: as §1, §2, §3
See Example 6. In this example the product SPECTRE® (Adama) containing the active ingredient chlorfenapyr belonging to IRAC Group 13 was used.
The insecticide concentration “N” (see below) that was used was 1 ml of Spectre product added to 100 ml PDA agar. 0.5N: 0.5 ml and 0.25N is 0.25 ml Spectre per 100 ml of PDA agar.
The efficacy was assessed after 7 days of incubation in a stove at 25° C.

[4] = fipronil 0.5N (0.47 g REGENT per 100 ml PDA), alone or + natamycin 1 ppm (1:3760 w/w)
[5] = fipronil 1N (0.94 g REGENT per 100 ml PDA), alone or + natamycin 1 ppm (1:7520 w/w)
[6] = chlorantraniliprole 0.25N (31.25 μl coragen per 100 ml PDA), alone or + natamycin 1 ppm (1:62.5 w/w), after 4 days
[7] = chlorantraniliprole 0.25N (31.25 μl coragen per 100 ml PDA), alone or + natamycin 1 ppm (1:62.5 w/w), after 5 days
[8] = chlorantraniliprole 0.5N (62.5 μl coragen per 100 ml PDA), alone or + natamycin 1 ppm (1:125 w/w), after 4 days
[9] = chlorantraniliprole 0.5N (62.5 μl coragen per 100 ml PDA), alone or + natamycin 1 ppm (1:125 w/w), after 5 days
[10] = chlorantraniliprole 1N (125 μl CORAGEN per 100 ml PDA), alone or + natamycin 1 ppm (1:250 w/w), after 4 days
[11] = chlorantraniliprole 1N (125 μl CORAGEN per 100 ml PDA), alone or + natamycin 1 ppm (1:250 w/w), after 5 days
[12] = chlorantraniliprole 2N (250 μl coragen per 100 ml PDA), alone or + natamycin 1 ppm (1:500 w/w), after 4 days
[13] = chlorantraniliprole 2N (250 μl coragen per 100 ml PDA), alone or + natamycin 1 ppm (1:500 w/w), after 5 days
[14] = chlorantraniliprole 5N (625 μl coragen per 100 ml PDA), alone or + natamycin 1 ppm (1:1250 w/w), after 4 days
[15] = chlorantraniliprole 5N (625 μl coragen per 100 ml PDA), alone or + natamycin 1 ppm (1:1250 w/w), after 5 days
[16] = chlorantraniliprole 10N (1250 μl coragen per 100 ml PDA), alone or + natamycin 1 ppm (1:2500 w/w), after 4 days
[17] = chlorantraniliprole 10N (1250 μl coragen per 100 ml PDA), alone or + natamycin 1 ppm (1:2500 w/w), after 5 days
[18] = chlorfenapyr 0.25N (0.25 ml Spectre per 100 ml PDA), alone or + natamycin 1 ppm (1:536 w/w)
[19] = chlorfenapyr 0.5N (0.5 ml Spectre per 100 ml PDA), alone or + natamycin 1 ppm (1:1072 w/w)
[20] = chlorfenapyr 1N (1 ml Spectre per 100 ml PDA), alone or + natamycin 1 ppm (1:2145 w/w)

## N#Cc1nn(-c2c(Cl)cc(C(F)(F)F)cc2Cl)c(N)c1[S+]([O-])C(F)(F)F (racemic) [Fipronil, (±)-5-amino-1-(2,6-dichloro-α,α,α-trifluoro-p-tolyl)-4-trifluoromethyl sulfinylpyrazole-3-carbonitrile]
[1]; [4]
  Area (fungal growth): 1742.33 mm2
  O % observed antifungal activity: 41.49%
[1]; [5]
  Area (fungal growth): 1437.02 mm2
  O % observed antifungal activity: 51.74%

## CNC(=O)c1cc(Cl)cc(C)c1NC(=O)c1cc(Br)nn1-c1ncccc1Cl [Chlorantraniliprole, 5-bromo-N-[4-chloro-2-methyl-6-(methylcarbamoyl)phenyl]-2-(3-chloropyridin-2-yl)pyrazole-3-carboxamide]
[2]; [6]
  Area (fungal growth; column head not given): 2762.05
  O % observed antifungal activity: −9.54
[2]; [7]
  Area (fungal growth): 4357.23 mm2
  O % observed antifungal activity: −2.11%
[2]; [8]
  Area (fungal growth; column head not given): 2841.26
  O % observed antifungal activity: −12.68
[2]; [9]
  Area (fungal growth): 4549.21 mm2
  O % observed antifungal activity: −6.61%
[2]; [10]
  Area (fungal growth; column head not given): 2897.46
  O % observed antifungal activity: −14.91
[2]; [11]
  Area (fungal growth): 4370.03 mm2
  O % observed antifungal activity: −2.41%
[2]; [12]
  Area (fungal growth; column head not given): 2599.18
  O % observed antifungal activity: −3.08
[2]; [13]
  Area (fungal growth): 4341.96 mm2
  O % observed antifungal activity: −1.75%
[2]; [14]
  Area (fungal growth; column head not given): 1270.26
  O % observed antifungal activity: 49.62
[2]; [15]
  Area (fungal growth): 2747.54 mm2
  O % observed antifungal activity: 35.61%
[2]; [16]
  Area (fungal growth; column head not given): 344.05
  O % observed antifungal activity: 86.36
[2]; [17]
  Area (fungal growth): 705.44 mm2
  O % observed antifungal activity: 83.47%

## CCOCn1c(-c2ccc(Cl)cc2)c(C#N)c(Br)c1C(F)(F)F [Chlorfenapyr]
[3]; [18]
  Area (fungal growth): 1040.80 mm2
  O % observed antifungal activity: 59.51%
[3]; [19]
  Area (fungal growth): 644.86 mm2
  O % observed antifungal activity: 74.92%
[3]; [20]
  Area (fungal growth): 228.67 mm2
  O % observed antifungal activity: 91.11%
